This assay concerns the target HCV NS3/NS4A protease (strain 1a) (Hepatitis C virus genotype 1a, UniProt P27958). Kind of assay: biochemical. The note with it: Table 5; HCV NS3/NS4A protease, spectrophotometric assay, 30° C., pH 6.5; read-out: Ki* Range.
Regarding `CCCC(NC(=O)[C@@H]1[C@@H]2[C@H](CN1C(=O)[C@@H](NC(=O)NC(C)C)C(C)(C)C)C2(C)C)C(=O)C(N)=O` (some centres unmarked), the Ki was in the range of 101 to 1000 nM.
In the case of `CCCC(NC(=O)[C@@H]1[C@@H]2[C@H](CN1C(=O)[C@@H](NC(=O)NCC)C(C)(C)C)C2(C)C)C(=O)C(N)=O` (some centres unmarked) it was over 1000 nM; in that of `CCOC(=O)N[C@H](C(=O)N1C[C@H]2[C@@H]([C@H]1C(=O)NC(CC1CC1)C(=O)C(N)=O)C2(C)C)C1CCCCC1` (some centres unmarked), 101 to 1000 nM.
The figure for `COC(=O)N[C@H](C(=O)N1C[C@H]2[C@@H]([C@H]1C(=O)NC(CC1CC1)C(=O)C(N)=O)C2(C)C)C1CCCCC1` (some centres unmarked) is 101 to 1000 nM; for `C=CCNC(=O)C(=O)C(CCC)NC(=O)[C@@H]1[C@H]2OC(C)(C)O[C@H]2CN1C(=O)[C@@H](NC(=O)OC(C)(C)C)C(C)(C)C` (some centres unmarked) it is over 1000 nM.
In the case of `C=CCNC(=O)C(=O)C(CCCC)NC(=O)[C@@H]1[C@H]2OC(C)(C)O[C@H]2CN1C(=O)[C@@H](NC(=O)OC(C)(C)C)C(C)(C)C` (some centres unmarked) it was over 1000 nM; in that of `C=CCNC(=O)C(=O)C(CCC)NC(=O)C1CCCN1C(=O)C(NC(=O)OC(C)(C)C)C(C)(C)C` (centres unmarked), over 1000 nM; in that of `C=CCC(NC(=O)[C@@H]1C2C(CN1C(=O)[C@@H](NC(=O)OC(C)(C)C)C(C)(C)C)C2(C)C)C(=O)C(=O)NCC(=O)NCCc1ccccc1` (some centres unmarked), 101 to 1000 nM.
In the case of `C=CCNC(=O)C(=O)C(CCCC)NC(=O)[C@@H]1[C@@H]2[C@H](CN1C(=O)[C@@H](NC(=O)OC(C)(C)C)C(C)(C)C)C2(C)C` (some centres unmarked), the Ki was over 1000 nM.
In the case of `C=CCNC(=O)C(=O)C(CCC)NC(=O)[C@@H]1[C@@H](OC(C)(C)C)CCN1C(=O)[C@@H](NC(=O)OC(C)(C)C)C(C)(C)C` (some centres unmarked) it was over 1000 nM.
`C=CCNC(=O)C(=O)C(CCCC)NC(=O)[C@@H]1[C@@H](OC(C)(C)C)CCN1C(=O)[C@@H](NC(=O)OC(C)(C)C)C(C)(C)C` (some centres unmarked): the Ki was over 1000 nM.
In the case of `C=CCCC(NC(=O)[C@@H]1[C@@H]2[C@H](CN1C(=O)[C@@H](NC(=O)OC(C)(C)C)C(C)(C)C)C2(C)C)C(=O)C(=O)NCC(=O)NCc1ccccc1` (some centres unmarked) it was over 1000 nM; in that of `C=CCC(NC(=O)[C@@H]1[C@@H]2[C@H](CN1C(=O)[C@@H](NC(=O)OC(C)(C)C)C(C)(C)C)C2(C)C)C(=O)C(=O)NCC(=O)Nc1ccccc1` (some centres unmarked), 101 to 1000 nM.
In the case of `C=CCC(NC(=O)[C@@H]1[C@@H]2[C@H](CN1C(=O)[C@@H](NC(=O)OC(C)(C)C)C(C)(C)C)C2(C)C)C(=O)C(=O)NCC(=O)NCc1ccc(C)cc1` (some centres unmarked) it was 1 to 100 nM.
The figure for `C=CCNC(=O)C(=O)C(CCC)NC(=O)[C@@H]1[C@@H]2[C@H](CN1C(=O)[C@@H](NC(=O)OC(C)(C)C)C1CCCCC1)C2(C)C` (some centres unmarked) is 101 to 1000 nM; for `CCCC(NC(=O)[C@@H]1CC(C)(C)CN1C(=O)[C@@H](NC(=O)OC(C)(C)C)C(C)(C)C)C(=O)C(=O)NCC` (some centres unmarked) it is over 1000 nM.
Regarding `C=CCNC(=O)C(=O)C(CCCC)NC(=O)[C@@H]1CC(C)(C)CN1C(=O)[C@@H](NC(=O)OC(C)(C)C)C(C)(C)C` (some centres unmarked), the Ki was over 1000 nM.
Regarding `C=CCC(NC(=O)[C@@H]1[C@H]2[C@@H](CN1C(=O)[C@@H](NC(=O)OC(C)(C)C)C(C)(C)C)C2(C)C)C(=O)C(=O)NCC(=O)NCc1cccc(C)c1` (some centres unmarked), the Ki was in the range of 101 to 1000 nM.
`C=CCC(NC(=O)[C@@H]1[C@@H]2[C@H](CN1C(=O)[C@@H](NC(=O)OC(C)(C)C)C(C)(C)C)C2(C)C)C(=O)C(=O)NCC(=O)NCc1ccccc1C` (some centres unmarked): the Ki lay in the range of 1 to 100 nM.
The figure for `C=CCNC(=O)C(=O)C(CCC)NC(=O)[C@@H]1[C@@H]2[C@H](CN1C(=O)[C@@H](NC(=O)[C@H](CC(C)C)NS(C)(=O)=O)C(C)(C)C)C2(C)C` (some centres unmarked) is 101 to 1000 nM; for `C=CCNC(=O)C(=O)C(CCC)NC(=O)[C@@H]1[C@@H]2[C@H](CN1C(=O)[C@@H](NC(=O)[C@H](CC(C)C)NS(C)(=O)=O)C1CCCCC1)C2(C)C` (some centres unmarked) it is 101 to 1000 nM.
The figure for `CCCC(NC(=O)[C@@H]1[C@@H]2[C@H](CN1C(=O)[C@@H](NC(=O)OC(C)(C)C)C(C)(C)C)C2(C)C)C(=O)C(=O)NOC` (some centres unmarked) is over 1000 nM; for `CCCC(NC(=O)[C@@H]1[C@@H]2[C@H](CN1C(=O)[C@@H](NC(=O)OC(C)(C)C)C(C)(C)C)C2(C)C)C(=O)C(=O)NOCC` (some centres unmarked) it is over 1000 nM; for `C=CCCNC(=O)C(=O)C(CCC)NC(=O)[C@@H]1[C@@H]2[C@H](CN1C(=O)[C@@H](NC(=O)OC(C)(C)C)C(C)(C)C)C2(C)C` (some centres unmarked) it is over 1000 nM.
The figure for `C=CCC(NC(=O)[C@@H]1[C@@H]2[C@H](CN1C(=O)[C@@H](NC(=O)OC(C)(C)C)C(C)(C)C)C2(C)C)C(=O)C(=O)NCC(=O)NCc1cccnc1` (some centres unmarked) is 101 to 1000 nM.
In the case of `CCCC(NC(=O)C1CC(C)(C)CN1C(=O)[C@@H](NC(=O)OC(C)(C)C)C(C)(C)C)C(=O)C(=O)NCC(=O)NCc1ccccc1` (some centres unmarked), the Ki is over 1000 nM.
Regarding `C=CCCC(NC(=O)C1[C@@H]2[C@H](CN1C(=O)[C@@H](NC(=O)OC(C)(C)C)C(C)(C)C)C2(C)C)C(=O)C(=O)NCC(=O)CCc1ccccc1` (some centres unmarked), the Ki was in the range of 101 to 1000 nM.
In the case of `C=CCCC(NC(=O)C1[C@@H]2[C@H](CN1C(=O)[C@@H](NC(=O)OC(C)(C)C)C(C)(C)C)C2(C)C)C(=O)C(=O)NCCC(=O)Cc1ccccc1` (some centres unmarked) it was 101 to 1000 nM.
In the case of `C=CCNC(=O)C(=O)C(CCC)NC(=O)C1[C@H]2[C@@H](CN1C(=O)C(NC(=O)Cc1ccccc1)C(C)(C)C)C2(C)C` (some centres unmarked), the Ki is over 1000 nM.
In the case of `CCCC(NC(=O)C1C2CCC(C2)N1C(=O)[C@@H](NC(=O)OC(C)(C)C)C1CCCCC1)C(=O)C(=O)NCC(=O)OCc1ccccc1` (some centres unmarked) it was over 1000 nM; in that of `CCCC(NC(=O)C1C2CCC(C2)N1C(=O)[C@H](NC(=O)OC(C)(C)C)C(C)(C)C)C(=O)C(=O)NCC(=O)OCc1ccccc1` (some centres unmarked), over 1000 nM.
For the compound `CCCC(NC(=O)C1C2CCC(C2)N1C(=O)[C@@H](NC(=O)OC(C)(C)C)C(C)(C)C)C(=O)C(=O)NCC(=O)O` (some centres unmarked), the Ki was over 1000 nM.
As for `C=CCNC(=O)C(=O)[C@@H](CCC)NC(=O)C1C2CCC(C2)N1C(=O)[C@@H](NC(=O)OC(C)(C)C)C(C)(C)C` (some centres unmarked), the Ki was over 1000 nM.
As for `C=CCNC(=O)C(=O)[C@@H](CCC)NC(=O)[C@@H]1C2CCC(C2)N1C(=O)C(NC(=O)OC(C)(C)C)C(C)(C)C` (some centres unmarked), the Ki was over 1000 nM.
`C=CCNC(=O)C(=O)C(CCC)NC(=O)[C@@H]1C[C@@H](CCC(C)C)CN1C(=O)[C@@H](NC(=O)OC(C)(C)C)C(C)(C)C` (some centres unmarked): the Ki is over 1000 nM.
As to `C=CCNC(=O)C(=O)C(CCCC)NC(=O)[C@@H]1C[C@@H](CCC(C)C)CN1C(=O)[C@@H](NC(=O)OC(C)(C)C)C(C)(C)C` (some centres unmarked), the Ki is over 1000 nM.
As to `CC(C)CC(NC(=O)[C@@H]1CC(C)(C)CN1C(=O)[C@H](NC(=O)OC(C)(C)C)C(C)(C)C)C(=O)C(=O)NCC(=O)NCc1ccccc1` (some centres unmarked), the Ki was over 1000 nM.
In the case of `CCCC(NC(=O)[C@@H]1CC(C)(C)CN1C(=O)[C@@H](NC(=O)OC(C)(C)C)C(C)(C)C)C(=O)C(=O)NCCc1ccccc1` (some centres unmarked) it was over 1000 nM.
In the case of `C=CCCC(NC(=O)[C@@H]1[C@@H]2[C@H](CN1C(=O)[C@@H](NC(=O)OC(C)(C)C)C(C)(C)C)C2(C)C)C(=O)C(=O)NCCC(=O)Nc1ccccc1` (some centres unmarked) it was 101 to 1000 nM; in that of `C=CCC(NC(=O)[C@@H]1[C@H]2[C@@H](CN1C(=O)[C@@H](NC(=O)OC(C)(C)C)C(C)(C)C)C2(C)C)C(=O)C(=O)NCC(=O)NC(c1ccccc1)c1ccccc1` (some centres unmarked), 101 to 1000 nM; in that of `C=CCC(NC(=O)[C@@H]1[C@H]2[C@@H](CN1C(=O)[C@@H](NC(=O)OC(C)(C)C)C(C)(C)C)C2(C)C)C(=O)C(=O)NCC(=O)NC(C)c1ccc(C)cc1` (some centres unmarked), 101 to 1000 nM.

The record behind these values is US7592316B2, “Peptides as NS3-serine protease inhibitors of hepatitis C virus” (Schering Corporation, priority 2000, dated 2009).
